This passage reports fractional viability results from the supplement of paper PMC5919970.

The subject of the assay is TYKNU. Description: fractional viability relative to vehicle; TYKNU is a high-grade serous ovarian cancer line; higher = less growth inhibition. As to conditions: 72 h, genotype: OPA1 knockout (sgOPA1 #2). In a few lines:
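TYKNU control cells or lentiCRISPRv2 knockout derivatives were plated at 500 cells per well in duplicate into drug-stamped 384-well plates holding a ~2100-compound library at 2 or 10 μM. Culture was in RPMI 1640 with 10% FBS at 37 °C in 5% CO2, with 72 h of drug treatment. Viability was measured by Cell Titer Glo luminescence, and the averaged duplicate treatment wells were normalised to duplicate control wells at the same plate position.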

Where a name gives a salt, the structure may show the parent alone. In all, about 2,000 compounds were measured (“fractional viability relative to vehicle”: median about 0.92, lowest 2% from about 0.11 on). This is one part of the list.

On to `C=C[C@]1(C)C[C@@H](OC(=O)CSC(C)(C)CNC(=O)[C@H](N)C(C)C)[C@]2(C)[C@H](C)CC[C@]3(CCC(=O)[C@H]32)[C@@H](C)[C@@H]1O` [Valnemulin HCl], for which the fractional viability was 1.01 (2uM) and 0.941 (10uM).

On to `Cc1c(-c2ccc(O)cc2)n(Cc2ccc(OCCN3CCCCCC3)cc2)c2ccc(O)cc12` [Bazedoxifene Acetate], for which the fractional viability stood at 0.812 (2uM) and 0.176 (10uM).

In the case of `Cc1c(-c2ccc(O)cc2)n(Cc2ccc(OCCN3CCCCCC3)cc2)c2ccc(O)cc12` [Bazedoxifene HCl], the fractional viability turned out to be 1.02 (2uM) and 0.329 (10uM).

In the case of `O=C(O)c1cccc(-c2noc(-c3ccccc3F)n2)c1` [Ataluren (PTC124)], the fractional viability came to 0.901 (2uM) and 0.531 (10uM).

With `Nc1ccc(S(=O)(=O)Nc2nccs2)cc1` [Sulfathiazole], the fractional viability is 1.07 (2uM) and 0.871 (10uM).

`Cc1ccc(-c2cc(C(F)(F)F)nn2-c2ccc(S(N)(=O)=O)cc2)cc1` [Celecoxib] returned a fractional viability (2uM) of 0.935 and a fractional viability (10uM) of 0.971.

Take `CC(C)[N+]1(C)[C@@H]2CC[C@H]1C[C@@H](OC(=O)C(CO)c1ccccc1)C2` (some centres undefined) [Ipratropium Bromide]: the fractional viability reads like this: (2uM) 1.2; (10uM) 0.954.

As to `CC[C@H]1OC(=O)[C@H](C)[C@@H](O[C@H]2C[C@@](C)(OC)[C@@H](O)[C@H](C)O2)[C@H](C)[C@@H](O[C@@H]2O[C@H](C)C[C@H](N(C)C)[C@H]2O)[C@](C)(O)C[C@@H](C)CN(C)[C@H](C)[C@@H](O)[C@]1(C)O` [Azithromycin], the fractional viability (2uM) amounted to 1.01 and the fractional viability (10uM) came to 1.2.

Regarding `OCCn1cc(-c2ccc3c(c2)CC/C3=N\O)c(-c2ccncc2)n1`, the fractional viability runs as follows: (2uM) 1.14; (10uM) 0.942.

Turning to `CN1CCc2nc(C(=O)N[C@@H]3C[C@@H](C(=O)N(C)C)CC[C@@H]3NC(=O)C(=O)Nc3ccc(Cl)cn3)sc2C1` [Edoxaban], the fractional viability is, setting by setting: (2uM) 1.05; (10uM) 0.951.

Regarding `CN[C@H]1CC[C@@H](c2ccc(Cl)c(Cl)c2)c2ccccc21` [Sertraline HCl], the fractional viability runs as follows: (2uM) 0.99; (10uM) 0.613.

`O=C(/C=C/c1cccc(S(=O)(=O)Nc2ccccc2)c1)NO` [Belinostat (PXD101)]: the fractional viability (2uM) is 0.484 and the fractional viability (10uM) came to 0.219.

On to `CC(C)(C)c1cc(NC(=O)Nc2ccc(-c3cn4c(n3)sc3cc(OCCN5CCOCC5)ccc34)cc2)no1` [Quizartinib (AC220)], for which the fractional viability came to 0.85 (2uM) and 0.746 (10uM).

Turning to `CNC(=O)c1ccc(N2C(=S)N(c3ccc(C#N)c(C(F)(F)F)c3)C(=O)C2(C)C)cc1F` [Enzalutamide (MDV3100)], the fractional viability turned out to be 1.01 (2uM) and 0.785 (10uM).

The compound `CCCc1ccc(OCC(=O)N(Cc2nc(-c3cccnc3)no2)C(C)C)cc1` yielded a fractional viability (2uM) of 0.791 and a fractional viability (10uM) of 0.721.

For the compound `COc1cc(OC)c(NC(=O)Nc2cc(C)on2)cc1Cl`, the fractional viability by setting is: (2uM) 1.02; (10uM) 1.1.

On to `COc1cc2nc(N3CCN(C(=O)C4COc5ccccc5O4)CC3)nc(N)c2cc1OC` (centres undefined) [Doxazosin Mesylate], for which the fractional viability (2uM) turned out to be 1.1 and the fractional viability (10uM) was found to be 1.22.

Consider `N#C/C(=C(/N)Sc1ccc(N)cc1)c1ccccc1C(F)(F)F`, for which the fractional viability (2uM) was determined as 1.02 and the fractional viability (10uM) was found to be 0.887.

As for `NC[C@@](O)(c1ccc(Cl)cc1)c1ccc(-c2cn[nH]c2)cc1`, the fractional viability runs as follows: (2uM) 0.858; (10uM) 0.87.

`O=c1c(O)c(-c2ccc(O)cc2)oc2cc(O)cc(O)c12` [Kaempferol] came in with a fractional viability (2uM) of 0.953 and a fractional viability (10uM) of 1.09.

As for `CCN(CC)C(=O)C1(c2ccccc2)CC1CN` (centres undefined) [Milnacipran HCl], the fractional viability by setting is: (2uM) 1.09; (10uM) 0.898.

Take `Cc1cc(C(C)(C)C)cc(C)c1CC1=NCCN1` [Xylometazoline HCl]: the fractional viability came out at 1.03 (2uM) and 0.893 (10uM).

With `COc1cc(NC(=O)c2ccccn2)ccc1Cl`, the fractional viability by setting is: (2uM) 0.917; (10uM) 0.999.

As for `c1ccc(Cn2c(-c3ccc(OC[C@H](C4CCNCC4)n4c(-c5ccccc5)nc5ccccc54)cc3)nc3ccccc32)cc1` [Deltarasin], the fractional viability was 1.14 (2uM) and 0.0644 (10uM).

For `CC#CCn1c(N2CCC[C@@H](N)C2)nc2c1c(=O)n(Cc1nc(C)c3ccccc3n1)c(=O)n2C` [Linagliptin], the fractional viability is 0.874 (2uM) and 0.907 (10uM).

In the case of `CCN(CC)CCOCCOC(=O)C1(c2ccccc2)CCCC1` [Pentoxyverine Citrate], the fractional viability was 0.934 (2uM) and 0.831 (10uM).

In the case of `COc1ccc(Cl)cc1C(=O)NCCc1ccc(S(=O)(=O)NC(=O)NC2CCCCC2)cc1` [Glyburide], the fractional viability is, setting by setting: (2uM) 0.986; (10uM) 0.837.

Regarding `Nc1nc(=O)n([C@@H]2CS[C@H](CO)O2)cc1F` [Emtricitabine], the fractional viability reads like this: (2uM) 0.979; (10uM) 0.839.

`CC#C[C@]1(O)CC[C@H]2[C@@H]3CCC4=CC(=O)CCC4=C3[C@@H](c3ccc(N(C)C)cc3)C[C@@]21C` [Mifepristone] showed a fractional viability (2uM) of 1.04 and a fractional viability (10uM) of 0.816.

Consider `CC[C@@H]1C(=O)N(C)c2cnc(Nc3ccc(C(=O)N[C@H]4CC[C@H](N5CCN(CC6CC6)CC5)CC4)cc3OC)nc2N1C(C)C` [Volasertib (BI 6727)], for which the fractional viability (2uM) amounted to 1.07 and the fractional viability (10uM) turned out to be 1.06.

For the compound `COC(=O)N[C@@H](C)CNc1nccc(-c2cn(C(C)C)nc2-c2cc(Cl)cc(NS(C)(=O)=O)c2F)n1`, the fractional viability reads like this: (2uM) 0.547; (10uM) 0.46.

Regarding `CCc1cccc(CC)c1NC(=O)N1Cc2[nH]nc(NC(=O)c3ccc(N4CCN(C)CC4)cc3)c2C1`, the fractional viability is, setting by setting: (2uM) 1.02; (10uM) 0.885.
